# In the supplement of paper PMC3334620:
# Over roughly 33,000 sequences, “E-score (-0.5 to 0.5)” has its median near -0.017; the highest 2% begin near 0.3. This is one part of the list.
# Molecular target: T1, Sut1 (UniProt P53032)
# T1 sequence: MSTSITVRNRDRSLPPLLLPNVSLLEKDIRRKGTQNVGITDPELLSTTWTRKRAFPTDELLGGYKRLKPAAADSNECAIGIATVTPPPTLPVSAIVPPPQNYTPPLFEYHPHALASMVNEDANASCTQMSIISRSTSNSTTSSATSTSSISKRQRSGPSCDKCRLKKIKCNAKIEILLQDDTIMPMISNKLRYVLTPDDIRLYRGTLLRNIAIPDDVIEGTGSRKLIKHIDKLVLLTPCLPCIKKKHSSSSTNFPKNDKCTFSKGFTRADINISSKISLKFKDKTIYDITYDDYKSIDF
# Assay: PBM E-score (8-mer binding enrichment) (E-score (-0.5 to 0.5)); higher = stronger / more preferred TF binding; most listed sequences are background and not binding sites
# Details: protein concentration: 200 nM; construct: GST-full length
# Method in brief: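 Full-length yeast transcription factors or their DNA-binding domains, GST-tagged and expressed with PURExpress, were applied at about 100-200 nM to universal all-10-mer Agilent arrays. These arrays had been made double-stranded by primer extension on fresh or once-stripped slides. Detection used fluorescent anti-GST, normalisation used masliner, and E-scores for ungapped eight-base words pooled with reverse complements came from the Universal PBM Analysis Suite.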
row,Sequence,PBM E-score
1,AGAATTTC,0.0821
2,ATCCGGTA,0.135
3,GCTTATCC,-0.00262
4,CAATTCGA,0.0472
5,ATGTACAG,-0.0843
6,CGACGTAG,-0.228
7,CCAGGTAG,-0.0982
8,CAGTCCAC,-0.114
9,CTTCAAAG,0.0688
10,ATCAGGAT,0.095
11,ACCCTAGA,-0.173
12,CAGTTTTA,0.0952
13,ACTAAAGA,0.145
14,AGTTACCC,-0.0204
15,GACGCTGC,-0.109
16,GCCAATGA,-0.223
17,CTTACCGC,-0.0412
18,AGACGCAG,-0.0594
19,CGTGAGGA,-0.0289
20,ACTCAACA,0.155
21,GGACCGCA,0.0561
22,CTACCAAC,0.0725
23,CTCAGAAC,0.0425
24,AGTCCTTA,0.0102
25,CCGTTAAA,0.215

row,Sequence,PBM E-score
1,CACAGCCG,-0.234
2,AACATCGA,0.00177
3,ATCACAAA,0.0833
4,GCCAGGGA,-0.291
5,GGGGTAAC,-0.0954
6,CGGTTCAA,0.0598
7,AGCGTGGA,-0.232
8,ACAGGCTC,-0.095
9,ATTGCTAG,-0.0606
10,GGAGCTCA,0.0463
11,CGTGTTAA,-0.0435
12,GGCACACA,-0.0936
13,CATCCGAG,-0.0553
14,CGTGCCAC,-0.241
15,GCTTTCAA,0.0924
16,GAGTCTAA,0.171
17,CGGCTACG,-0.194
18,ACAAAGGG,-0.144
19,CGACAGAA,-0.0552
20,ATGTTTAA,0.104
21,AGAGAACG,0.0677
22,AGAAGTCA,0.0573
23,AGGCGCGC,-0.00675
24,CTCCTGCA,-0.178
25,ATACTGTC,0.103

row,Sequence,PBM E-score
1,AAGGGTTA,-0.019
2,CCGTCGAG,0.0557
3,GCGCCCCC,-0.34
4,ATTTTGCG,0.193
5,AAATAATT,0.338
6,ACGGGGGG,-0.348
7,AATATTCC,0.276
8,AATGAACC,0.0466
9,ACCACCGT,-0.0843
10,CGGCGCAC,-0.0137
11,CCGAATGA,0.224
12,AGCCTCAC,-0.0672
13,AGTAAAAA,0.148
14,GCTCTGTA,-0.116
15,ATCTCCTC,-0.0263
16,CTACGCTC,-0.0781
17,AGTAGGGA,-0.205
18,CGTACGAG,-0.098
19,CGTTTGAA,0.233
20,CTATGAAG,0.0482
21,AAGGTGGC,-0.138
22,GCGTGAAC,-0.0671
23,ATGCGCAT,0.295
24,ATCGGGCG,-0.174
25,AATAGTAC,0.197

row,Sequence,PBM E-score
1,CGATGAGC,-0.0442
2,CCGCAATA,0.156
3,CAACAAAG,0.0963
4,ACCCGGCA,-0.141
5,GACGCCGC,-0.221
6,GATACGAA,-0.00618
7,ACAGTACG,0.0517
8,CAAATCGA,-0.198
9,ATACGTTC,-0.101
10,ACTCTATC,0.112
11,GGTGCTTA,-0.0924
12,ATGATAAG,0.153
13,AATAAGGT,0.0865
14,ACAAGCGT,-0.0414
15,ATCTAGGA,0.084
16,CAAACAGA,0.0632
17,ATTCCGCC,0.214
18,CGGCTCCA,-0.0412
19,ACCAATTC,0.0773
20,CCAGTGCG,-0.161
21,CATGTTGC,-0.125
22,ATCTTTAG,0.0694
23,ACAGCGAT,-0.0437
24,CGATGACC,-0.0493
25,CGTCCTGC,-0.307

row,Sequence,PBM E-score
1,CCGATGAC,0.0296
2,AGTCGCGC,0.101
3,CCACTCGG,0.0102
4,TATACGCA,0.0114
5,CTGATGCA,-0.115
6,ATGAATCC,0.025
7,GCATTCCA,-0.198
8,AAAACTAA,0.353
9,ATGGTGAA,0.0181
10,CGCGAAAC,-0.0638
11,CGTACGTA,0.0321
12,AGCGCAGA,-0.177
13,AATATCGA,0.0619
14,CGCATCCC,-0.321
15,CTCATATA,0.143
16,GTTAAGTA,0.144
17,AAACTATT,0.24
18,GATCCGGC,0.0532
19,CGCCGGTA,-0.158
20,ACGGGCCT,-0.203
21,CACGGGAG,-0.185
22,CAGCCGAA,-0.0991
23,ACAAACGC,-0.0721
24,CAATAGGA,-0.00026
25,CGAACCCG,-0.0423

row,Sequence,PBM E-score
1,ACGCCGAA,0.087
2,CATCAATA,0.186
3,CGAAACCA,0.0133
4,ACCGATAT,0.151
5,AACATTAC,0.172
6,CCATTCGG,0.00649
7,AAGAGACT,-0.0192
8,AACAACAC,0.173
9,AGATATCT,-0.0624
10,CTCGGTAA,0.186
11,ACTAGGGA,-0.167
12,ACTACCAT,0.197
13,AGATGGGC,0.0254
14,TAGTAATA,0.19
15,AAGCTTAT,0.0714
16,CACGAATA,0.159
17,CAAAGTAC,0.0285
18,AATTAAAC,0.329
19,GCAAGGAA,0.0749
20,AGGCTTAG,0.00184
21,GCGTCTAC,-0.204
22,ACCCGTAT,-0.0177
23,AGATTCTA,0.108
24,ATACTACG,-0.0705
25,AGCGGGCG,-0.295

row,Sequence,PBM E-score
1,CAGCCATC,-0.263
2,GCAGGAGA,-0.0587
3,ACCACTTA,0.0137
4,CAGGTCGG,-0.193
5,CTTATTGA,0.13
6,GACCCAGC,-0.331
7,CTATCCGC,-0.0219
8,TCGCTGAA,0.0804
9,CGCACCAC,0.0864
10,CTACTTCA,0.038
11,AACGTGCG,-0.0575
12,ATAAGTGG,0.0787
13,GCGGACTA,0.404
14,CGAATTAG,0.196
15,GGGTATAC,-0.111
16,CACCTTCG,-0.12
17,ATGTAGGC,-0.058
18,ATACATTG,0.15
19,AGGCAACA,-0.252
20,TCGCACAA,-0.0829
21,AGGCGGAA,0.12
22,GGGCGGTA,-0.0548
